The whole screen tested about 52,000 compounds, of which about 1,700 (3.3%) were called active. No stated cut-off is given here; in the data, active means survival mostly below about 52% (no sharp cut-off); inactive means mostly above about 56%. The list shows a part of the results.
test system: Wild type; test: growth inhibition of S. aureus wild type versus tarO mutant, primary screen, teichoic acid synthesis inhibitors, RN4220, OD600 (AID 463173); settings: S. aureus RN4220 wild type/DeltatarO growth, OD600, 18 h, stronger effect = lower value, screened at 18.75 µg/mL (by protocol)

SMILES	survival
COC(=O)c1ccccc1NC(=O)N(Cc1ccc(C)cc1)Cc1cccn1-c1nnc(N2CCCC2=O)s1	inactive: 123%
Cc1ccc(CNS(=O)(=O)c2c(C(=O)N3CCC(C)CC3)c(C)n(C)c2C)cc1	inactive: 76%
COc1ccc(C)cc1NC(=O)C1CCN(S(=O)(=O)c2cccc3nonc23)CC1	inactive: 96%
CCOC(=O)c1[nH]c(C)c(CCC(=O)NCc2ccc(OC(C)C)cc2)c1C	inactive: 89%
Cc1sc2ncn(CC(=O)Nc3ccc(C(F)(F)F)cc3)c(=O)c2c1S(=O)(=O)N1CCN(C)CC1	inactive: 126%
Cc1cc(Nc2cccc(O)c2)c2cccc(Br)c2n1	inactive: 73%
CC1=NN(C(=O)c2ccccc2Cl)C(O)(C2CCCCC2)C1 (stereo not drawn)	inactive: 108%
CCc1ccc(S(=O)(=O)c2cn(CC(=O)Nc3cccc(C)c3)c3ccc(Cl)cc3c2=O)cc1	inactive: 71%
Cc1nnc(SCC(=O)N(c2ccccc2)c2ccccc2)nc1C	inactive: 103%
Cc1cccc(NC(=O)CSc2nnc3c4ccccc4n(C)c3n2)c1	inactive: 87%
COC(=O)c1ccccc1NC(=O)c1sc2nc(C)cc(C)c2c1NC(=O)c1ccccc1Cl	inactive: 70%
COc1ccc(NC(=O)CN2CCC(N3CCCCC3)CC2)c(OC)c1	inactive: 98%
Cc1cc(/C=C(\C#N)C(=O)Nc2ccccc2)c(C)n1-c1ccc(F)cc1	inactive: 83%
COc1ccc2c(CNCc3cccs3)c(C(=O)O)n(Cc3cccc(F)c3)c2c1	inactive: 71%
COc1ccc(NC(=O)c2cc(C(C)=O)n3ccccc23)cc1Cl	inactive: 87%
CCOC(=O)c1cccc(NC(=O)C2CCN(S(=O)(=O)c3c(C)noc3/C=C/c3ccc(C)cc3)CC2)c1	inactive: 88%
CC(CNC(=O)c1ccc2nc(CCc3ccccc3)oc2c1)c1ccccc1 (stereo not drawn)	inactive: 82%
COc1ccc(NC(=O)c2ncoc2-c2ccco2)cc1Cl	inactive: 117%
COc1ccc(CNC(=O)c2cc(C3CC3)nc3c2c(C)nn3-c2cccc(Cl)c2C)cc1	inactive: 73%
Cc1cccc(C(=O)Nc2ccc3nc(SCC(=O)N4CCc5ccccc54)sc3c2)c1	inactive: 111%
COc1ccc(OC)c(-c2nnc3n(CCc4ccccc4)c(=O)c4ccccc4n23)c1	inactive: 84%
COc1ccc(CNC(=O)Cn2ccc3cc(S(=O)(=O)N4CCCC4)ccc32)c(OC)c1	inactive: 75%

SMILES	survival
CCn1c(=O)n(-c2ccc3c(c2)OCO3)c2nc(-c3cc(OC)ccc3OC)nc(C(N)=O)c21	inactive: 89%
COc1cc(NC(=O)c2nc(-c3ccc(Cl)cc3)n3c2CCCCC3)cc(OC)c1OC	inactive: 84%
O=C(Cc1ccccc1)Nc1sc2c(c1C(=O)Nc1ccccc1Cl)CCCC2	inactive: 42%
Cc1ccccc1C(=O)Nc1cccc(C(=O)OCc2cc(=O)n3c(C)csc3n2)c1	inactive: 76%
S=c1n(-c2ccccc2)cnn1CN1CCCCC1	inactive: 96%
COc1ccc(CNC(=O)c2ccc(NC(=O)N3CCSc4ncccc43)cc2)c(OC)c1	inactive: 55%
CC(=O)N1CCCn2c1nc1ccccc12	inactive: 109%
Cc1cnc(C(=O)Nc2ccc(N3CCN(C(=O)OC(C)(C)C)CC3)cc2)cn1	inactive: 107%
CCOc1ccc2oc(=O)cc(CN3CCN(C(=O)c4cccc(Cl)c4)CC3)c2c1	inactive: 76%
Cc1ccc(C)c(Nc2nn3c(=O)c4ccc(C(=O)N(C)Cc5ccccc5)cc4nc3s2)c1	inactive: 152%
COC(=O)C1CC2(C(=O)O)CC(C(=O)O)(CC(C(=O)OC)C2=O)C1=O (stereo not drawn)	inactive: 93%
CCN(CC)C(=O)Cn1c(=O)n(CCCCCC(=O)Nc2ccccc2)c(=O)c2sccc21	inactive: 89%
COC(=O)c1ccccc1NC(=O)Cn1c(=O)cc(-c2ccccc2)c2c(C)nn(C)c21	inactive: 68%
CCOC(=O)c1sc2ncn(CC(=O)Nc3cc(C)cc(C)c3)c(=O)c2c1C	inactive: 90%
CCc1ccc(N2CC(C(=O)O)CC2=O)cc1 (stereo not drawn)	inactive: 90%
O=C(NCc1ccccc1F)c1cc2ccccn2n1	inactive: 83%
COc1cccc(C(c2nnnn2CCC(C)C)N2CCN(c3cccc(C)c3C)CC2)c1OC (stereo not drawn)	inactive: 101%
CCCCCCCc1nnc(NC(=O)c2cccs2)s1	inactive: 104%
Cc1ccc(CN2CCc3nc(N4CCN(c5ccccc5F)CC4)ncc3C2)s1	inactive: 123%
C=CCN1C(=O)C2(NC(=O)c3ccccc3N2)c2ccccc21 (stereo not drawn)	inactive: 103%
COC(=O)CNC(=O)C1CCN(c2nc(C)cc(-c3ccccc3)n2)CC1	inactive: 106%
Cc1ccc(NC(=O)C2CCCN2S(=O)(=O)c2cccc3nsnc23)c(Br)c1 (stereo not drawn)	inactive: 89%

SMILES	survival
Cc1ccc2oc(=O)c3cc(C(=O)NCc4ccc(Cl)cc4)sc3c2c1	inactive: 92%
Cc1cccc(-c2nc(C)c(CCNC(=O)C(=O)Nc3c(C)cc(C)cc3C)s2)c1	inactive: 71%
Cc1cc(SCC(=O)NCc2ccccc2Cl)nc(=O)[nH]1	inactive: 72%
COc1ccc(CNC(=O)c2ccc(NC(=O)N3CCCCc4ccccc43)cc2)c(OC)c1	inactive: 63%
Cc1ccc(-c2noc(CSc3nnc(C)n3-c3ccc(F)cc3)n2)cc1	inactive: 92%
Cc1cccc(C)c1NC(=O)CCS(=O)(=O)c1ccc2c(c1)n(C)c(=O)c(=O)n2C	inactive: 80%
COc1ccc(-c2csc3nc(-c4ccc(F)cc4)oc(=O)c23)cc1OC	inactive: 73%
CCC(=O)N1CCc2cc(Br)cc(S(=O)(=O)CCC(=O)NCc3ccc(C)cc3)c21	inactive: 79%
Cc1cc(O)c(C(c2ccccc2)N2CCN(c3ccccc3F)CC2)c(=O)n1Cc1ccco1 (stereo not drawn)	inactive: 77%
COC(=O)c1sc(S(=O)(=O)N2CCN(c3ccc(OC)cc3)CC2)c(C(=O)OC)c1C	inactive: 127%
CCN(CC)S(=O)(=O)c1ccc(S(=O)(=O)N2CCN(C)CC2)cc1	inactive: 113%
COc1ccc(CNC(=O)C(=O)Nc2ccccc2OC)cc1	inactive: 80%
C=CCNC(=O)CN1CCN(c2ccccc2)CC1	inactive: 108%
CC1CC(C)CN(S(=O)(=O)c2ccccc2)C1 (stereo not drawn)	inactive: 104%
COc1ccc(OC)c(NC(=O)CSc2nccn2-c2cc(C)cc(C)c2)c1	inactive: 84%
O=C(C1CC1)n1cc(C(=S)N2CCOCC2)c2ccccc21	inactive: 100%
Cc1ccc(-c2nc3ccccc3[nH]2)cc1NC(=O)COc1ccc(Cl)cc1Cl	inactive: 45%
COc1cc(NC(=O)CN2C(=O)C(c3ccc(C)cc3)=NC23CCCCCC3)cc(OC)c1	inactive: 83%
CC(=O)Nc1c(C)nn(-c2ccccc2)c1N1CCC(C(=O)Nc2ccc(Cl)cc2C)CC1	inactive: 129%
CCCC(=O)Nc1nc2c(s1)CC(C(C)(C)C)CC2 (stereo not drawn)	inactive: 66%
COc1ccc(-n2c(=O)c3ccc(C(=O)NCc4ccc(C)cc4)cc3n(Cc3ccc(F)cc3Cl)c2=O)cc1	inactive: 83%
CC1(C)N=C(c2ccc(F)cc2)C(=O)N1CC(=O)Nc1ccccc1Cl	inactive: 92%

SMILES	survival
COc1ccc(N2CCN(C(=O)CCc3nnc4n(C)c(=O)c5sccc5n34)CC2)cc1	inactive: 64%
Cc1ccc(CN2C(=O)CC(c3ccc(Cl)cc3)c3c(C)nn(-c4nc(C)cc(C)n4)c32)cc1 (stereo not drawn)	inactive: 73%
COc1ccc(-n2nc3c(c2NC(=O)C(=O)NCc2ccccc2)CSC3)cc1	inactive: 69%
Cc1ccc(Cn2c3ccccc3c3cnn(CC(=O)N4CCCCCC4)c(=O)c32)cc1	inactive: 22%
COC(=O)c1ccc(NC(=O)CSc2nccn2Cc2ccc(Cl)cc2)cc1	inactive: 71%
COC(=O)c1cc2oc(C)cc2n1CC(=O)Nc1ccc(OC)c(OC)c1	inactive: 123%
CCOc1ccc(-n2c(=O)c3c(C)c(C)sc3n(Cc3c(F)cccc3Cl)c2=O)cc1	inactive: 93%
CCN1CCN(c2cc(C)c3cc(NC(=O)c4cc(OC)c(OC)c(OC)c4)ccc3n2)CC1	inactive: 73%
Clc1cccc(N2CCN(c3nc4ccccc4c4nc(-c5ccccc5)nn34)CC2)c1	inactive: 86%
CCOc1ccc(-c2nc(CSCC(=O)NCCc3ccccc3)c(C)o2)cc1	inactive: 65%
COc1ccc(N2C(=O)CS(=O)(=O)C23C(=O)N(Cc2ccccc2)c2ccccc23)cc1 (stereo not drawn)	inactive: 71%
COc1cccc(-c2nc(S(=O)(=O)c3ccc(C)cc3)c(NCc3ccccc3)o2)c1	inactive: 141%
COc1ccc(CN=C(N)N=C(N)N)cc1	inactive: 114%
Cc1cc(C)cc(NC(=O)Cn2c(=O)n(CCC(C)C)c(=O)c3cccnc32)c1	inactive: 91%
CCc1ccc2oc(C(=O)N(Cc3cccc(Cl)c3)Cc3ccco3)c(C)c2c1	inactive: 84%
CCN(CC)C(C(=O)O)c1ccccc1 (stereo not drawn)	inactive: 97%
Cn1c(=O)cc(SCC(=O)NCCc2ccc(Cl)cc2)c2cc(Cl)ccc21	inactive: 70%
COc1cccc(CNC(=O)CCCn2c(=O)c3cccn3c3ccc(F)cc32)c1OC	inactive: 58%
O=C(Cn1c2ncccc2c(=O)n1-c1ccccc1)Nc1cccc(C(F)(F)F)c1	inactive: 74%
Cc1ccc(C)c(NC(=O)Cn2cc(S(=O)(=O)N3CCCC3)c(S(=O)(=O)N3CCCC3)c2)c1	inactive: 67%
Cc1cccc(NC(=O)CSc2nc(C)cc(C)c2C(=O)Nc2ccc(Cl)cc2)c1	inactive: 86%
CCc1nn2c(=O)cc(COC(=O)c3cccc(NC(=O)COc4ccccc4F)c3)nc2s1	inactive: 124%

Reference: PubChem BioAssay AID463173 (ICCB-Longwood Screening Facility, Harvard Medical School, 2010)
